Structures can show the parent of a compound that is named as a salt. ± gives the standard deviation of the averaged measurements. The full ranking holds about 1,900 compounds; the median of “normalised cell viability (NPI; 0 = phenylarsine oxide control, 1 = DMSO control)” is about 1, and the lowest 2% start at about 0.039. This is one part of the list.
Tested on: NCI-H1944
Assay: normalised cell viability (NPI; 0 = phenylarsine oxide control, 1 = DMSO control) (fraction of DMSO control); NCI-H1944 is a non-small cell lung cancer line; higher = more viable cells (less compound toxicity)
Details: 6 days
[1] = glucocorticoid arm: hydrocortisone 2.75 uM co-treatment, compound 1 µM
[2] = glucocorticoid arm: hydrocortisone 2.75 uM co-treatment, compound 5 µM
[3] = glucocorticoid arm: hydrocortisone 2.75 uM pre-treated 2 days and continued, compound 1 µM
[4] = glucocorticoid arm: hydrocortisone 2.75 uM pre-treated 2 days and continued, compound 5 µM
[5] = glucocorticoid arm: vehicle, compound 1 µM
[6] = glucocorticoid arm: vehicle, compound 5 µM
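Also: CTB read-out in 384-well plates, mean of triplicate wells, normalised per plate against 1 µM phenylarsine oxide and 0.1% DMSO, compounds added 24 h after seeding.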

| Compound | normalised cell viability [1] | normalised cell viability [2] | normalised cell viability [3] | normalised cell viability [4] | normalised cell viability [5] | normalised cell viability [6] |
| --- | --- | --- | --- | --- | --- | --- |
| C=CCc1ccc(O)c(-c2ccc(O)c(CC=C)c2)c1 [Honokiol] | 0.9927 ± 0.0068 | 0.962 ± 0.036 | 0.971 ± 0.0072 | 0.9857 ± 0.0095 | 1.002 ± 0.0068 | 1 ± 0.0087 |
| O=C(O)CN(CCOCCOCCN(CC(=O)O)CC(=O)O)CC(=O)O | 1.01 ± 0.014 | 0.991 ± 0.017 | 1.03 ± 0.07 | 1 ± 0.0087 | 1.002 ± 0.0072 | 0.9983 ± 0.0029 |
| CSc1cccc(Nc2ncc3cc(-c4c(Cl)cccc4Cl)c(=O)n(C)c3n2)c1 | 0.455 ± 0.027 | 1.09 ± 0.01 | 0.556 ± 0.038 | 1.06 ± 0.021 | 0.259 ± 0.029 | 1.063 ± 0.0058 |
| OCc1ccc(-c2ccc(-c3ccc(CO)s3)o2)s1 | 0.979 ± 0.0061 | 0.0751 ± 0.0071 | 1.017 ± 0.0058 | 0.358 ± 0.022 | 0.621 ± 0.045 | 0.0128 ± 0.0026 |
| O=C(O)c1ccc(Nc2ncc3c(n2)-c2ccc(Cl)cc2C(c2c(F)cccc2F)=NC3)cc1 |  | 0.979 |  |  |  |  |
| O=S(=O)(NCCNCC=Cc1ccc(Br)cc1)c1cccc2cnccc12 | 0.985 ± 0.012 | 0.985 ± 0.025 | 1.03 ± 0.01 | 1.007 ± 0.0058 | 1.002 ± 0.0072 | 0.968 ± 0.016 |
| CC(=O)NNC(=O)N1Cc2ccccc2Oc2ccc(Cl)cc21 | 0.997 ± 0.0052 | 1.005 ± 0.0087 | 0.808 ± 0.34 | 1.01 ± 0.011 | 0.9977 ± 0.0015 | 0.9877 ± 0.0045 |
| CNC[C@H](O)c1cccc(O)c1 [Phenylephrine HCl] | 1.02 ± 0.017 | 1.01 ± 0.025 | 1.03 ± 0.01 | 1.01 ± 0.02 | 1.007 ± 0.0058 | 1.001 ± 0.0085 |
| CNC[C@H](O)c1cccc(O)c1 [(R)-(-)-Phenylephrine hydrochloride] | 1.023 ± 0.0058 | 1.01 ± 0.015 | 1.017 ± 0.0058 | 0.902 ± 0.19 | 1.01 | 1.02 ± 0.015 |
| Cc1nc(Nc2n[nH]c3c2CN(C(=O)N[C@H](CN(C)C)c2ccccc2)C3(C)C)c2sccc2n1 | 0.832 ± 0.033 | 0.29 ± 0.072 | 1.05 ± 0.015 | 0.763 ± 0.02 | 0.12 ± 0.011 | 0.0302 ± 0.0031 |
| [Cl-].[Li+] [Lithium Chloride] | 1.007 ± 0.0058 | 0.998 ± 0.013 | 1.01 ± 0.013 | 1.01 ± 0.018 | 1.01 | 1.002 ± 0.0072 |
| CCOc1ccn(-c2ccc(F)cc2)c(=O)c1C(=O)Nc1ccc(Oc2ccnc(N)c2Cl)c(F)c1 | 0.981 ± 0.034 | 0.832 ± 0.06 | 0.9887 ± 0.004 | 0.889 ± 0.034 | 1 ± 0.014 | 0.9513 ± 0.0029 |
| CCn1cc(-c2ccnc3[nH]c(-c4cccc(CN(C)C)c4)cc23)c(-c2ccc(NC(=O)N(C)C)cc2)n1 | 0.802 ± 0.024 | 0.444 ± 0.01 | 0.919 ± 0.026 | 0.676 ± 0.022 | 0.509 ± 0.038 | 0.0863 ± 0.0092 |

— the supplement of paper PMC8285479
